Assay results as given in PubChem BioAssay AID686978 (National Center for Advancing Translational Sciences (NCATS), 2013).
Values joined by “and” are separate entries in the source; they are usually repeats but may differ in a detail not shown here. Identical values can stand only once. About 64,000 (15%) of roughly 420,000 compounds were called active. The shares of active, inactive and inconclusive entries below differ from those in the screen. Calls come from the whole dose curve; as a rule, active = well fitted inhibition curve with a large enough effect; inconclusive = small, poorly fitted or top-dose-only effect; inactive = flat fitted curve, though single readings scatter. Where the call is inconclusive, the potency comes from a doubtful curve fit.

experiment: qHTS for Inhibitors of human tyrosyl-DNA phosphodiesterase 1 (TDP1): qHTS in cells in absence of CPT; conditions: DT40 Tdp1-/- hTDP1 cells, no CPT, ATP luminescence, 48 h; activity change, negative = growth inhibition: at 46.2 µM (top of the series) unless noted; note: nearly all actives have a fitted effect of over 55% in size
In short: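 Growth of hTDP1-complemented DT40 Tdp1-knockout cells is measured by ATP luminescence after at least 48 hr compound exposure at 37 °C, with DMSO substituting for the 20 nM CPT used in the parallel screen.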
% is set by controls: 0 for no effect and ±100 for the full control effect; potency is the fitted concentration of half-maximal effect; tags give direction and shape of the fitted curve.

Structure (SMILES) | activity change, negative = growth inhibition | Potency
O=C1CC(=Nc2ccccc2)NN1c1ccccc1 | inactive: -25.9% | 
CCOc1cc(CNc2ccccc2)cc(Br)c1OCc1ccccc1F |  | inconclusive: 25.9 µM [inhibitor, single point]
Cc1ccc(S(=O)(=O)NC(=O)Nc2ccc(N(C)C)cc2)cc1 |  | active: 16.4 µM
Cc1ccc(S(=O)(=O)c2cn(C)c3cc(N4CCOCC4)c(F)cc3c2=O)c(C)c1 |  | inconclusive: 29.1 µM [inhibitor, single point]
CCCCOC(=O)Nc1ccccc1C(=O)OC |  | inconclusive: 14.6 µM [inhibitor, single point]
CCOc1cc(/C=N/N2CCN(Cc3ccccc3)CC2)ccc1O | inactive: -3.08% | 
O=c1c2ccccc2nc(/C=C/c2ccc([N+](=O)[O-])o2)n1CCCO |  | active: 1.16 µM
Cc1cc(C)nc(/N=C(\N)Nc2ccc(C)c([N+](=O)[O-])c2)n1 |  | active: 13 µM
O=C(Cc1ccc2c(c1)CCCC2)Nc1ccccc1Cl |  | inconclusive: 10 µM [inhibitor, partial curve]
CC(=O)N1CCN(S(=O)(=O)c2cccc(C(=O)N(Cc3ccccc3)c3ccc(C)cc3)c2)CC1 |  | inconclusive: 25.9 µM [inhibitor, single point]
O=S(=O)(c1ccc2ccccc2c1)n1cnc2ccccc21 |  | inconclusive: 32.6 µM [inhibitor, single point]
Cc1ccc(Cl)cc1-n1c(=O)c2sc3ccccc3c2n(CC(=O)NC2CCCC2)c1=O |  | inconclusive: 9.2 µM [inhibitor, partial curve]
O=C(COC(=O)c1nc(Cl)ccc1Cl)NCc1cccs1 | inactive: -7.34% | 
Cc1ccc(CN2C(=O)CCC2(C)c2nnnn2Cc2ccccc2)cc1 (stereo not given) | inactive: -15.2% | 
CC(C)(C)n1nnnc1C(c1ccccc1)N1CCN(c2ccccn2)CC1 (stereo not given) | inactive: -7.57% | 
COc1ccc(C(=O)c2ccc(Cl)c([N+](=O)[O-])c2)cc1 |  | active: 0.731 µM
Cc1ccn(CC(=O)NC2CC(C)(C)Cc3c2cnn3-c2ccc(F)cc2)n1 (stereo not given) | inactive: 5.81% | 
O=C(O)C1C2C=CC(O2)C1C(=O)Nc1ccccn1 (stereo not given) | inactive: -28.6% | 
Cc1cc(C)cc(NC(=O)C2CCN(S(C)(=O)=O)CC2)c1 | inconclusive: -32.1% [inhibitor] | 
Cc1cccc(NC(=O)CN(c2ccc(F)cc2)S(C)(=O)=O)c1 |  | inconclusive: 29.1 µM [inhibitor, single point]
CS(=O)(=O)Nc1ccc2c(c1)ncn2CCc1ccccc1 | inactive: -5.61% | 
O=C(Cc1ccc(Cl)cc1)NC1CCCCCC1 | inactive: 0.48% | 
CCOC(=O)Cc1csc(NC(=O)c2ccc(N3CCOCC3)cc2[N+](=O)[O-])n1 |  | inconclusive: 18.4 µM [inhibitor, partial curve]
COc1ccc(/C=C/c2c([N+](=O)[O-])c(=O)n(C)c(=O)n2C)c(OC)c1OC |  | inconclusive: 16.4 µM [inhibitor, single point]
COc1cc(C2c3cc4c(cc3OC(NNC(N)=O)C2C)OCO4)cc(OC)c1OC (stereo not given) |  | active: 1.3 µM

Structure (SMILES) | activity change, negative = growth inhibition | Potency
O=C(NN1c2ccccc2CCc2ccccc21)c1ccccc1Br |  | inconclusive: 16.4 µM [inhibitor, partial curve, poor fit]
COc1ccccc1CCNC(=O)c1cc(C2CC2)nc2c1cnn2C(C)C |  | active: 23.1 µM
COc1ccc(O)c(/C=N/Nc2nc(C)cc(-c3ccccc3)n2)c1 |  | inconclusive: 18.4 µM [inhibitor, single point]
O=C(c1ccc(Cn2ccc([N+](=O)[O-])n2)cc1)N1CCN(Cc2ccccc2)CC1 |  | inconclusive: 29.1 µM [inhibitor, single point]
Cc1ccc(C2CC(c3cccs3)=NN2C(=O)CSc2nc(=O)n3cc(C)ccc3n2)cc1 (stereo not given) |  | inconclusive: 20.6 µM [inhibitor, single point]
Cc1cccc(C)c1NC(=O)COC(=O)c1ccc([N+](=O)[O-])o1 | inactive: -17.4% | 
Cc1ccc(NC(=O)CCc2nnc3ccc(NCc4ccco4)nn23)cc1 |  | inconclusive: 32.6 µM [inhibitor, single point]
CC(C(=O)NC1=NCCS1)(C(F)(F)F)C(F)(F)F |  | inconclusive: 1.16 µM [inhibitor, full curve, poor fit]
CCc1ccc(N(C(=O)c2csnn2)C(C(=O)NC(C)(C)C)c2cccnc2)cc1 (stereo not given) | inactive: -13.5% | 
CC(NC(=O)C(=O)NN=C1CCCCCCCCCCC1)c1ccccc1 (stereo not given) | inactive: -10.3% | 
COc1ccc(N(CC(=O)NCCOc2ccccc2)S(=O)(=O)c2ccc(C)cc2)cc1 |  | active: 20.6 µM
C=CCNC(=S)/N=c1/ccccn1CC |  | inconclusive: 18.4 µM [inhibitor, partial curve]
Cc1nc(C(=O)NNC(=O)c2c(-c3c(Cl)cccc3Cl)noc2C)cs1 |  | active: 16.4 µM
CCOCCOCN(C#N)c1nc(OC)nc(N(C)C)n1 | inactive: -12.3% | 
COc1cc(C(=O)N2CCCC(c3cc(C(=O)NCc4ccccc4)no3)C2)cc(OC)c1C (stereo not given) |  | inconclusive: 29.1 µM [inhibitor, single point]
COC(=O)C1CCN(C(=O)CC(NC(=O)C(F)(F)F)c2cccs2)CC1 (stereo not given) | inactive: -4.46% | 
Cc1cc(C)n(-c2nc3cc(Cl)ccc3nc2N2CCN(c3cccc(C)c3C)CC2)n1 | inactive: -15.2% | 
CCOC(=O)c1c(C)nc2sc3c(c2c1-c1ccc(OC)cc1)NC(c1ccc(OC)cc1)NC3=O (stereo not given) |  | active: 13 µM
CC(C)Cc1ccc(/C=C/C(=O)NC2CC2)cc1 |  | inconclusive: 23.1 µM [inhibitor, single point]
O=C(Nc1nc(-c2ccc([N+](=O)[O-])cc2)cs1)c1c(F)cccc1F |  | active: 4.61 µM
CC(C)C(=O)N[C@H]1CCC2C3CC=C4C[C@@H](O)CC[C@]4(C)C3CC[C@@]21C (stereo not given in full) |  | inconclusive: 8.2 µM [inhibitor, partial curve]
Cc1cccc(NCc2n[nH]c(=S)n2-c2ccccc2)c1 | inactive: -6.53% | 
CC(=O)c1cccc(NC(=O)N2CCC(C(=O)c3ccc(F)cc3)CC2)c1 |  | inconclusive: 18.4 µM [inhibitor, partial curve]
C[C@H]1CN=C(N(C)C)N1CC1CCCCC1 |  | inconclusive: 20.6 µM [inhibitor, single point]
O=C(C1CCCN(S(=O)(=O)c2cccc3nonc23)C1)N1CCN(c2ccccc2F)CC1 (stereo not given) |  | active: 18.4 µM

Structure (SMILES) | activity change, negative = growth inhibition | Potency
CCOc1ccccc1N1CC(C(=O)NCCC2=CCCCC2)CC1=O (stereo not given) | inactive: -29.3% | 
CC(C)Cn1c(N)c(C(=O)COC(=O)c2cccc(F)c2)c(=O)n(C)c1=O |  | inconclusive: 20.6 µM [inhibitor, single point]
CCOc1ccc(NC(=O)[C@@H](NC(=O)c2ccccc2)[C@@H](C)CC)cc1 |  | inconclusive: 23.1 µM [inhibitor, single point]
Cc1ccc(OCCNC(=O)CNC(=O)c2ccc(Cl)c([N+](=O)[O-])c2)cc1 |  | inconclusive: 18.4 µM [inhibitor, single point]
O=C(CCn1c(=O)c2cccn2c2ccc(F)cc21)NCCc1ccc(Cl)cc1 |  | active: 14.6 µM
CCc1ccc(CNC(=O)C2CCN(S(=O)(=O)N3CCC(C)CC3)CC2)cc1 |  | active: 25.9 µM
CCCCN(C)C(=O)C1CCN(c2ccc(S(=O)(=O)N3CCOCC3)cc2[N+](=O)[O-])CC1 |  | inconclusive: 25.9 µM [inhibitor, single point]
Clc1ccc(-c2ccc(CNCCSc3nnnn3-c3ccccc3)o2)cc1 | inactive: -25.2% | 
O=S(=O)(NC1CCCCC1)c1ccc(-c2csnn2)s1 |  | inconclusive: 13 µM [inhibitor, partial curve]
COC(=O)c1ccccc1NC(=O)CSc1cc(-c2ccccc2)nc(C)n1 |  | inconclusive: 29.1 µM [inhibitor, single point]
COc1ccc(OCC(=O)Nc2ccc(S(=O)(=O)N(C)c3ccccc3)cc2)cc1 | inactive: 0.0086% | 
CN(C(=O)CSc1nnc(C2CC2)n1-c1ccccc1)C1CCS(=O)(=O)C1 (stereo not given) | inactive: 33.8% | 
O=C(NCc1ccccn1)C1CCN(C(=O)c2cc3sccc3n2Cc2ccc(F)cc2)CC1 |  | active: 23.1 µM
CC(C)(C)OC(=O)N1CCC(c2c(C(=O)NCCN3CCOCC3)cnn2-c2cccc(F)c2)CC1 | inactive: -26.1% | 
CCN1CCN(c2oc(-c3ccc(COc4ccc(OC)cc4)o3)nc2C#N)CC1 |  | inconclusive: 29.1 µM [inhibitor, single point]
C/C=C1\COC(C(=O)NCc2ccccc2)(C(F)(F)F)C=C1C=C1CCCCC1 (stereo not given) |  | inconclusive: 23.1 µM [inhibitor, single point]
CS(=O)(=O)Cc1ccc(C(=O)N2CCN(C(=O)c3cccs3)CC2)cc1 | inactive: 1.54% | 
CCN(CC)c1ccc(NC(=O)Cn2cc3c(n2)CCC(C)C3)c(C)c1 (stereo not given) | inconclusive: -33% [inhibitor] | 
CCN(CC)S(=O)(=O)c1nnc(NC(=O)COc2ccccc2)s1 |  | inconclusive: 20.6 µM [inhibitor, single point]
COc1cc(OC)cc(C(=O)NCCn2ccc3ccccc32)c1 |  | inconclusive: 29.1 µM [inhibitor, single point]
C/C(=N\NC(=O)OC(C)(C)C)c1cccc([N+](=O)[O-])c1 |  | inconclusive: 25.9 µM [inhibitor, single point]
COc1ccc(Oc2ncc3nc(-c4ccc(OC)cc4)c(=O)n(C4CC4)c3n2)cc1 | inactive: -1.43% | 
Clc1ccccc1-c1nc(-c2ccncc2)no1 | inconclusive: -32.5% [inhibitor] | inconclusive: 29.9 µM [inhibitor, single point] and inconclusive: 16.4 µM [inhibitor, single point]
C(=N\Nc1nc(-c2cccnc2)nc2ccccc12)/c1ccccc1 |  | active: 16.4 µM
